The full ranking holds about 33,000 sequences; the median of “E-score (-0.5 to 0.5)” is about -0.01, and the highest 2% start at about 0.26. Some of the results follow.
biological target: Ste12 (UniProt P13574); experiment: PBM E-score (8-mer binding enrichment) (E-score (-0.5 to 0.5)); higher = stronger / more preferred TF binding; most listed sequences are background and not binding sites; conditions: protein concentration: 200 nM; construct: GST-DNA-binding domain
Outline: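 Universal all-10-mer Agilent arrays, fresh or stripped once, were converted to double-stranded form by primer extension. GST-tagged yeast transcription factors from PURExpress in vitro transcription/translation, full-length or DNA-binding domain only, were applied at about 100-200 nM and detected with fluorescent anti-GST. After masliner normalisation, the Universal PBM Analysis Suite scored each ungapped eight-base word together with its reverse complement by E-score.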

Point of comparison: AAATCTCG, “PBM E-score” value -0.0566. Against it:
- ATAACGGC — higher, -0.0187
- ATTGCTTA — higher, 0.115
- ACCAGAAT — higher, 0.025
- ACACATCG — higher, -0.0113
- CATAAACG — higher, 0.193
- GAGTAAGC — higher, -0.0348
- ATACTCAC — lower, -0.0618
- CGTACATC — lower, -0.0613
- ATGAGGGG — higher, 0.0641
- GGTGCTAC — lower, -0.125
- CCGGATTA — higher, 0.173
- AGCGGACC — lower, -0.264
- GATTAGAC — higher, -0.00297
- GCACATGC — lower, -0.0778
- AACCGCAC — higher, -0.0467
- CCAACTGC — lower, -0.132
- ACAGCGGA — higher, 0.00891
- AAGCGGGA — lower, -0.132
- CACCGAGA — higher, 0.0186
- AGATACAA — higher, 0.135
- GGGTCAGA — lower, -0.18
- CTCTACAA — higher, 0.0124
- TTATATAA — higher, 0.176
- GAGCATGC — lower, -0.141
- AGCGGCGG — higher, 0.102
- AGCATATA — higher, 0.0944
- CACAATGG — lower, -0.0649
- CATCATTA — higher, 0.221
- ACATGAAG — higher, 0.091
- CGCCCCAG — higher, 0.0509
- CCTTGATC — higher, -0.0305
- GAGCCTCC — higher, -0.0549
- TAGATGCA — lower, -0.0757
- ACTGTTCC — lower, -0.139
- ACATATCC — lower, -0.0935
- AAGTTAAT — higher, 0.0233
- AAATTGTC — higher, 0.268
- AAGTCCCG — lower, -0.111
- ACGAGAAA — higher, 0.16
- AGCTTTGC — higher, -0.0525
- AACAGCGG — higher, 0.0491
- TCTCGAAA — higher, 0.0747
- CGGGCTAG — lower, -0.131
- GGTGGAAC — lower, -0.0854
- ACGTTACA — higher, 0.164
- TGCGGAAA — higher, 0.148
- CACTAGAG — higher, 0.104
- AGTCGCGG — higher, 0.0863
- AACGAATC — higher, 0.134
- TACATGCA — higher, -0.0395
- ATTGGTAC — higher, 0.00439
- ACCGATCA — higher, -0.0161
- ACTTTGCA — higher, 0.0794
- TACTCAAA — higher, 0.101
- CCGTGTTC — higher, 0.152
- CCAGCCTA — higher, 0.049
- AACCCCGC — higher, 0.181
- AATGCTCG — lower, -0.058
- CAAAAACA — higher, 0.153
- AATTGTTA — higher, 0.25
- CAATAAAC — higher, 0.11
- ACCCAACT — higher, -0.0251
- GATTGAAC — higher, -0.0187
- ACGATATC — higher, 0.111
- CCCTTCCA — higher, -0.0396
- GGTTCGAA — higher, 0.0962
- CAGTGAGG — lower, -0.195
- CCTCTCAA — lower, -0.146
- CCCCGCAA — higher, 0.146
- CCACCTTC — higher, -0.022
- TCAGGGGA — lower, -0.0742
- AGAGTTTC — higher, 0.0351
- GAACCCTA — lower, -0.14
- CAGGAGTA — lower, -0.1
- CGGATTTC — higher, 0.0415
- TCTGTCCA — higher, 0.0843
- AGTCCCAT — higher, -0.0198
- AATAGAAA — higher, 0.193
- CACAAAGC — higher, 0.0779
- ACGGACGT — lower, -0.139
- CAATTGCA — higher, 0.0169
- GATGAGCA — lower, -0.0712
- GTCCGCAC — lower, -0.0666
- CAGTGGAG — lower, -0.0837
- CGGCTTCA — higher, 0.0461
- AGGCGTAG — higher, -0.029
- CGCTCGGC — higher, -0.0251
- CCCGACCA — higher, 0.0418
- ATGTGCGC — lower, -0.0921
- CACTTGCG — higher, -0.0542
- ACAAGCAG — lower, -0.155
- CAAGGTCC — lower, -0.0809
- AGCTTTCG — lower, -0.232
- GCACAAGA — higher, 0.0501
- TCCCGAGA — lower, -0.22
- GTCACCAC — lower, -0.121
- ACCAACGA — higher, 0.00614
- ATTCTCGG — higher, 0.114
- CTTTGGAC — higher, 0.0737
- CAAGCCTA — lower, -0.151
- CACTAGCG — lower, -0.143
- CCAGGGTA — lower, -0.0942
- GATTACTA — higher, 0.0664
- AAACCCCG — higher, 0.28
- ACGAGCAT — higher, 0.0482
- CCGTACTA — higher, 0.00296
- GCGGGCTA — lower, -0.193
- AGGTATCA — higher, 0.0378
- ATCTATCC — higher, 0.112
- CATATCAC — lower, -0.0631
- ATTGTAGC — higher, 0.0213
- ACGCTTAC — lower, -0.179
- ACGAGTCC — higher, -0.0312
- GGCCATAC — higher, -0.0307
- GGACCAAA — higher, -0.0181
- CCCACTCA — higher, 0.0863
- CCTAGTTA — higher, 0.015
- CATCGTAG — lower, -0.251
- TACATTGA — higher, 0.103
- TATGAGGA — higher, 0.0228
- AGTTCGGC — lower, -0.143
- ACTAAGAA — higher, 0.195
- AGGAACAA — higher, -0.055
- ACGACACG — lower, -0.0797
- GTAACCCA — higher, 0.216
- AGACTTAG — lower, -0.188
- ACGTTACG — higher, 0.00414
- TATCCCAA — higher, -0.0184
- CTCCAGCA — higher, 0.0297
- ATGACCAA — higher, -0.0343
- CTCTGAGC — lower, -0.135
- AAAGGACC — higher, -0.0559
- AACACTCG — higher, 0.0544
- GGTCCACA — lower, -0.145
- CTGGCCCC — lower, -0.129
- CTACTGGC — higher, 0.0701
- AATAGCGC — higher, 0.0361
- ACAAGGTA — higher, 0.0156
- AGTTAAAA — higher, 0.286
- GCCCCTAC — higher, 0.0166
- GGATAGCC — lower, -0.0943
- GTAGTCAA — higher, 0.0297
- AAGTGTTC — higher, -0.00788
- CGGGAACC — lower, -0.236
- AAGTATGA — higher, 0.17
- TCGTAAGA — higher, 0.0859
- GTGTAACA — higher, 0.319
- ATTGCTAC — lower, -0.107
- AAGAGAAT — higher, 0.0795
- CCGAACAC — higher, 0.0669
- CATTAAGC — higher, -0.00233
- CTGTCATC — lower, -0.108
- TCGACGCA — higher, -0.0298
- ACCTTTAA — higher, 0.026
- GTATATAC — lower, -0.207
- AAACTCCG — higher, 0.172
- ATGTCGAC — higher, -0.044
- GCCTCGCC — lower, -0.0817
- AAATGAGG — higher, -0.0161
- AGGGTGTA — lower, -0.103
- AGGCTACT — higher, 0.123
- GTCGACCA — lower, -0.126
- GATTCACC — higher, 0.0165
- AGCGCACC — lower, -0.0667
- ACGGTCGC — lower, -0.191
- GTCATGAA — higher, 0.0771
- AATGTGAT — higher, 0.121
- CTCGTCCA — higher, 0.0717
- AAGATCGA — higher, -0.0121
- GGCCCTAC — lower, -0.194
- GCGCGCGC — higher, 0.353
